# Results published in PubChem BioAssay AID1030 (National Center for Advancing Translational Sciences (NCATS), 2008).
# Among all 220,000 compounds or so, about 16,000 (7.3%) were called active. The shares of active, inactive and inconclusive entries below differ from those in the screen. Calls follow the shape of the dose curve; as a rule, active = well fitted inhibition curve with a large enough effect (not every such curve was filed as active); inconclusive = small, poorly fitted or top-dose-only effect, or another doubt; inactive = no such curve, though single readings can be large or run the other way. No potency is given beside an inconclusive call; the fits are too rough.
# Biological target: Aldehyde dehydrogenase 1A1 (Homo sapiens) (UniProt P00352)
# Assay: qHTS Assay for Inhibitors of Aldehyde Dehydrogenase 1 (ALDH1A1);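 as to activity, negative = inhibition: plate controls were no enzyme wells and a reference inhibitor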
# Conditions: Purified ALDH1A1, NADH fluorescence, propionaldehyde substrate; series mostly up to 75.3 µM; activity, negative = inhibition: at the top concentration
# Potency is read from the fitted curve at half-maximal effect; tags tell the direction and shape of the fitted curve.
# Chain of UniProt P00352 (P00352 whole entry, looked up): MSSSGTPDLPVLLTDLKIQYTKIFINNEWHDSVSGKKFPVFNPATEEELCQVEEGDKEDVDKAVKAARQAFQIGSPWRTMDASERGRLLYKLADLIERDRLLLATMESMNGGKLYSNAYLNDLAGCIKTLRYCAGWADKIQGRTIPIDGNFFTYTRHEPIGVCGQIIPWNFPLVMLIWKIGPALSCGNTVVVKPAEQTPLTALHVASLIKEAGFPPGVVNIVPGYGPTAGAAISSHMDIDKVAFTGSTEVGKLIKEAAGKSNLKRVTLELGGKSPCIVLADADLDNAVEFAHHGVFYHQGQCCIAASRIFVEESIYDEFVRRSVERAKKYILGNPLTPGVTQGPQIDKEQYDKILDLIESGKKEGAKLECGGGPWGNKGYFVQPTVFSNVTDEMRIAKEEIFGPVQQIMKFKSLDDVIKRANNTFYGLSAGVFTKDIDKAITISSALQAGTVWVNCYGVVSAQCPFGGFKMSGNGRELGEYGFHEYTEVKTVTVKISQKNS
Structure (SMILES),Potency,"activity, negative = inhibition"
Cc1nn(C)c(C)c1/C=N/NC(=O)c1csc2ccccc12,active: 22.4 µM,
CC(C)c1ccc(NC2(C#N)C(=O)Nc3ccccc32)cc1 (stereo unspecified),"inconclusive [inhibitor, partial curve]",
O=C(NCc1nnc(SCC(=O)N2CCC(Cc3ccccc3)CC2)o1)c1ccco1,active: 14.1 µM,
CC1(C)NC(=O)N(CCCCOc2ccccc2[N+](=O)[O-])C1=O,"inconclusive [inhibitor, partial curve]",
COC(=O)c1cc(=O)n(Cc2ccco2)c(=Nc2ccc(F)cc2)s1,active: 11.2 µM,
O=C(NCc1ccco1)c1ccccc1Br,,inactive: 8.77%
CCCSc1nnc(C(C)C)n1N,,inactive: 6.98%
OCC(CO)(CBr)CBr,"inconclusive [inhibitor, single point]",
Cc1ccc(C(=O)Nc2ccc3cn[nH]c3c2)cc1S(=O)(=O)N1CCCCC1,"inconclusive [inhibitor, single point]",
COc1ccccc1OCc1nc(-c2cccc([N+](=O)[O-])c2)no1,,inactive: -3.52%
Cc1onc(-c2ccccc2)c1C(=O)N(Cc1ccco1)Cc1cccs1,"inconclusive [inhibitor, single point]",
CCn1c(=O)c(C(=O)NCc2cccnc2)c(O)c2ccccc21,"inconclusive [inhibitor, single point]",
NNC(=O)c1cnn(-c2ccccc2)c1C(F)(F)F,active: 11.2 µM,
COc1ccc(S(=O)(=O)N2CCC(C(=O)Nc3ccc4c(c3)OCCO4)CC2)cc1OC,,inactive: -14.9%
CNC(=O)c1cccn1-c1ccsc1C(=O)OC,,inactive: 0.293%
COc1ccc(-n2c(=O)c(C)nc3cnc(N(C)C)nc32)cc1,"inconclusive [inhibitor, single point]",
C=CCn1c(SCC(=O)c2c(N)n(C)c(=O)n(C)c2=O)nnc1-c1ccccc1F,,inactive: 2.34%
O=C(Nc1ccc(Cc2ccncc2)cc1)C1CCC(N2C(=O)C3C4C=CC(C5CC45)C3C2=O)CC1 (stereo unspecified),"inconclusive [inhibitor, single point]",
O=[N+]([O-])c1cc([N+](=O)[O-])c2cccnc2c1Oc1ccccc1O,"inconclusive [inhibitor, single point]",
CCOC(=O)C(Cc1ccccc1)c1ccnc2nc(N)nn12 (stereo unspecified),"inconclusive [inhibitor, single point]",
C/C(=N\NC(=O)CSCc1ccccc1Br)c1cccc([N+](=O)[O-])c1,"inconclusive [inhibitor, single point]",
CCCCOC(=O)c1ccc(NC(=O)c2cnc3n(c2=O)CCS3)cc1,"inconclusive [inhibitor, single point]",
CCOc1ccc(OCc2ccc(C(=O)OCc3ccccn3)o2)cc1,"inconclusive [inhibitor, single point]",
Cc1ccc(OS(=O)(=O)c2ccccc2)c(/C=N/N=C2\NC(=O)C(C)S2)c1 (stereo unspecified),,inactive: 11.7%

Structure (SMILES),Potency,"activity, negative = inhibition"
CCOc1ccc(C2C(C(=O)C3CC3)N3C=C(C#N)C=CC3C2(C#N)C#N)cc1 (stereo unspecified),"inconclusive [inhibitor, single point]",
O=c1[nH]nc(SCCS(=O)(=O)c2ccc(F)cc2)n1-c1ccc2c(c1)OCCO2,active: 20 µM,
CC1(C)CC(=O)c2sc(NC(=O)Cc3cccs3)nc2C1,active: 0.794 µM,
C=CCn1c2ccccc2c2nnc(SCc3[nH]c(=O)[nH]c3C(=O)CCCCC(=O)OCC)nc21,active: 10 µM,
CCN(CC)c1ccc(NC(=O)c2cc(Cl)ccc2OC)cc1,"inconclusive [inhibitor, single point]",
Oc1ccc(CN2CCCCC2)c2cccnc12,"inconclusive [inhibitor, single point]",
O=C(c1cccc(F)c1)N1CCC2(CCCN(C(c3ccccc3)c3ccccc3)C2)CC1,"inconclusive [inhibitor, single point]",
CCN(CC)S(=O)(=O)c1ccc(C(=O)NCC(c2cccs2)N2CCOCC2)cc1 (stereo unspecified),"inconclusive [inhibitor, partial curve]",
O=C(c1ccco1)N1CCN(C(=O)C2CC(c3ccc(Cl)c(Cl)c3)=NO2)CC1 (stereo unspecified),,inactive: -9.91%
Cc1ccc(SCc2[nH]nc3c2C2(C(=O)Nc4ccc([N+](=O)[O-])cc42)C(C#N)=C(N)O3)cc1 (stereo unspecified),active: 12.6 µM,
CCOC(=O)/C(C#N)=C\c1cc(OC)c(OC)cc1[N+](=O)[O-],"inconclusive [inhibitor, full curve]",
Cc1nc(Nc2ccc(S(=O)(=O)N3CCCCC3C)cc2)c2nnn(Cc3ccccc3)c2n1 (stereo unspecified),"inconclusive [inhibitor, partial curve]",
Cc1ccc(NC(=O)CN2CCC(NC(=O)C3CCCCC3)CC2)c(Br)c1,,inactive: 0.661%
CC(C)NC(=O)CSc1nnc(-c2ccc(S(=O)(=O)N3CCCC3)cc2)n1CC1CCCO1 (stereo unspecified),"inconclusive [inhibitor, single point]",
Cc1c(-c2nc(N)nc(Nc3ccccc3F)n2)oc2ccccc12,"inconclusive [inhibitor, single point]",
CCOC(=O)C1=C(C)N(CC(C)C)C(=O)/C1=C\c1ccc(OCC(=O)Nc2ccccc2)cc1,"inconclusive [inhibitor, partial curve]",
O=C(CN1CCC(n2nnc3cc(F)ccc32)CC1)N1CCCc2ccccc21,"inconclusive [inhibitor, single point]",
O=C(CN1CCCc2ccccc21)NC(=O)NCc1ccco1,,inactive: -1.98%
CCc1ccc(N(C(=O)c2snc(C(N)=O)c2N)C(C(=O)NCCC(C)C)c2c[nH]c3ccccc23)cc1 (stereo unspecified),,inactive: -3.82%
c1csc(-c2nn3cnnc3c3ccccc23)c1,"inconclusive [inhibitor, partial curve, poor fit]",
CC1(C)CC2CC(C)(CN2S(=O)(=O)c2ccc(C(=O)Nc3cccc(S(=O)(=O)N4CCOCC4)c3)cc2)C1 (stereo unspecified),"inconclusive [inhibitor, full curve]",
CCCN1Cc2cccc(C(=O)NC(C)c3cccs3)c2C1=O (stereo unspecified),active: 3.98 µM,
O=S(=O)(NCCSc1nnc(-c2ccco2)n1-c1ccccc1)c1ccccc1,,inactive: -11.3%
Cn1c(C(=O)Nc2ccc3c(c2)OCCO3)cc2c(=O)n(C)c3ccccc3c21,active: 25.1 µM,

Structure (SMILES),Potency,"activity, negative = inhibition"
COc1ccc(OC)c(NC2=C(Cl)C(=O)N(Cc3ccccc3)C2=O)c1,"inconclusive [inhibitor, single point]",
O=C(CSc1nn(-c2ccc(Cl)cc2)c(=S)s1)N1CCN(C(=O)c2ccco2)CC1,"inconclusive [inhibitor, single point]",
CN1C(=O)CC(c2ccco2)Sc2ccccc21 (stereo unspecified),"inconclusive [inhibitor, single point]",
C#CCNC(=O)C1=C[C@H](c2ccc(C(F)(F)F)cc2)C[C@H](OCCCCO)O1,,inactive: -3.4%
CCOc1ccc(C2=Nc3ccccc3C(c3ccc(N4CCOCC4)cc3)=NN2)cc1,"inconclusive [inhibitor, partial curve]",
Cc1c2cnn(-c3ccccc3)c(=O)c2c(C)n1CCCC(=O)N1CCN(c2ncccn2)CC1,"inconclusive [inhibitor, partial curve]",
COc1ccc(-c2nc3nc(SC)nn3cc2C)cc1F,"inconclusive [inhibitor, full curve]",
COC(=O)C[n+]1cccc2ccccc21,"inconclusive [inhibitor, single point]",
Cc1cccc(CS(=O)(=O)Cc2ccc(C(=O)NCc3ccco3)o2)c1,"inconclusive [inhibitor, full curve, poor fit]",
O=C(COc1ccc(Cl)cc1)NCc1nnc(SCC(=O)N2CCCC2)o1,,inactive: -4.17%
COc1ccc(-n2nccc2-c2nn(-c3cccc(OC)c3)c(=O)n(C)c2=O)cc1,,inactive: -5.3%
O=C(CN1C(=O)NC2(CCCc3ccccc32)C1=O)Nc1cccc(S(=O)(=O)N2CCCCC2)c1 (stereo unspecified),,inactive: -2%
O=C(O)CN=C1CC(c2ccccc2)CC(=O)/C1=C(/O)CCCN1C(=O)c2ccccc2C1=O (stereo unspecified),"inconclusive [inhibitor, single point]",
O=c1c2sc3nc(N4CCOCC4)c4c(c3c2nnn1Cc1ccccc1)CCCC4,"inconclusive [inhibitor, partial curve]",
COCCOC(=O)C1=C(C)NC2=C(C(=O)CC(c3cccs3)C2)C1c1ccsc1 (stereo unspecified),"inconclusive [inhibitor, single point]",
C=CCn1c(SCc2cc(=O)n3cc(C)ccc3n2)nnc1-c1ccc(F)cc1,"inconclusive [inhibitor, single point]",
CCC(=O)Nc1nc2cc(OC)ccc2s1,,inactive: 8.03%
COC(=O)CCCC(=O)N1CCCC(CCC(=O)NCc2ccc(F)c(F)c2)C1 (stereo unspecified),"inconclusive [inhibitor, full curve]",
C=C(C)COc1ccc(-c2nc(N)nc(C)c2Oc2ccccc2OC)c(O)c1,,inactive: -4%
Cc1nn(C)cc1CN(C)C(=O)CC12CC3CC(CC(C3)C1)C2,"inconclusive [inhibitor, partial curve]",
C(=N\N(Cc1ccccc1)c1ccccc1)/c1cccnc1,,inactive: -14.9%
CCn1c(C(=O)N2CCC(C(=O)NCCCSC3CCCCC3)CC2)cc2sccc21,active: 3.16 µM,
COc1ccc(CC(=O)Nc2c3c(nn2C(C)(C)C)CS(=O)C3)cc1 (stereo unspecified),"inconclusive [inhibitor, single point]",
